Consider 167 variants from the RNAGym collection of RNA variant scans (doi:10.7554/elife.90254).

The chains are these.
B1: OR4K15 (parent)
chain: GUUAACGGUCAUAGGCCAUGGAAACUAGGAGCACCAUUUCGCUGCCAGUGAAGAAAUGAACAAAGAAAAUCUGGGCCAGGCAGGCAUCAAAAGAAAUAGUCUUGCGCUCAACCAGAAAGUCUGUAAUCAUUUUAAGGGUA

Read counts are not given, so values of variants with three or more changes are uncertain.

The variants in this data set derive from B1. Nature of the data set: self-cleavage, relative activity (ratio to wild type); higher = more cleavage; in vitro, sequencing; the parent is a self-cleaving ribozyme.
In the case of U39C A51U U100C U120C, the self-cleavage came to 2.93.
For U38C U49C A66G A68G G74U A111G, the self-cleavage turned out to be 0.06.
To U38C U39C U49C A55G belongs 0.23; to U39C A56G A126G, 1.1; to U39G A52G A94U U108C, 0.01.
With C40A A59G A89U, the self-cleavage turned out to be 1.72.
Under U39C U49C A52G A56C A62U A86G G93U A129G stands 0.82; under U39A A111G A117G, 0.02; under U39C A96G U97C, 0.82.
Turning to G41A A67G A116G, the self-cleavage was found to be 0.51.
In the case of U39C A92G A126G, the self-cleavage was determined as 1.3.
Turning to G41A A68G A111U, the self-cleavage was determined as 0.11.
Under U39C U57C A110G A111G stands 0.03.
Regarding U39C A94G U97C, the self-cleavage came out at 1.36.
For U38C A86G A94G, the self-cleavage was determined as 0.68.
Under U38C A51U G115A A118G stands 0.37; under C40U A59G A117G U127C, 2.15.
Under U39A A67G A96G stands 1.98; under U39C A60G A91G U102A U108C A111U, 0.01.
Take U38A U49C U87C U103C: the self-cleavage worked out at 0.85.
Under U39A C40U A52G A63G A118G stands 2.1; under G41A A54G U100C, 2.7; under U39C A78G A92G, 0.24.
For the variant U39C A63G A78G A94U U97C A110G, the self-cleavage is 0.03.
Under U39A U72A A89G stands 0.38.
Turning to U38C G84A A95G, the self-cleavage was determined as 2.73.
For the variant U39C C46U A66G, the self-cleavage was found to be 1.2.
In the case of U39A A56G A78U, the self-cleavage was found to be 0.18.
Turning to U39C A68U A118G, the self-cleavage amounted to 1.21.
Under U38C U39C A129U stands 0.93; under U38C A52G U72A, 0.44.
As for U39C A51G A96G U100C, the self-cleavage worked out at 2.32.
Take C40U U43C U108C U130G: the self-cleavage is 0.
For U39C A78G A129U, the self-cleavage was found to be 0.14.
For U38C U87A A95G C105A A117U, the self-cleavage came to 0.
In the case of U38C U87C A140U, the self-cleavage is 2.15.
As for U39C A67G A111G A140G, the self-cleavage came to 0.02.
To U39C G58A A59G C112U belongs 0.01.
As to U39A U70C A78C A82G A117U, the self-cleavage was found to be 0.05.
In the case of U39A A114G U130C A135C A140G, the self-cleavage was 0.05.
On to U39A A47U U57A U124A, for which the self-cleavage came out at 0.27.
With G41A A54G U57C A62U A63U U103C U108C, the self-cleavage stood at 0.01.
Turning to U38C G58U U122A, the self-cleavage was determined as 1.21.
Take U39C U70A A94G A118G: the self-cleavage was determined as 1.24.
Consider U39A C77U A114G U124C U132A, for which the self-cleavage is 1.08.
Under U38C A59G A64G stands 0.42; under U38C A94G U132C, 1.88; under U38C A52C A90G A92G, 0.81.
Turning to U39G A78U U127C, the self-cleavage is 0.16.
For the variant U39C A54G U130C, the self-cleavage turned out to be 1.02.
For the variant U38C U49C A78U A95U U108C, the self-cleavage amounted to 0.01.
In the case of C40U A67G A89G, the self-cleavage amounted to 1.78.
Take U38C A78U A117G: the self-cleavage turned out to be 0.09.
In the case of U38A A116C U132G, the self-cleavage was found to be 0.06.
As to U38C A52U U127C U131C, the self-cleavage was 0.51.
Regarding U39C A55G U124C, the self-cleavage was 1.72.
Under U39C A96G A110U U130C stands 0.28.
For U39C U57C G106U, the self-cleavage was determined as 0.02.
For U38C U100G A116U, the self-cleavage worked out at 0.84.
With U39C A69G A86G A140G, the self-cleavage came to 1.14.
As to U39C A51G U72C U103C, the self-cleavage stood at 0.26.
For the variant U38C A51G U57C A90G A134U, the self-cleavage worked out at 1.74.
Consider U38C A82G U108A, for which the self-cleavage was 0.04.
Turning to U38C A56G A110G, the self-cleavage worked out at 0.25.
In the case of U38G A110G A117G, the self-cleavage was determined as 0.2.
To U38C A118G U132C belongs 2.12; to C40U A54G G79A U108C A110G, 0.01; to C40U A125G U127C, 0.23.
Take U38C U57C A110U A129C: the self-cleavage amounted to 0.7.
As to U38C A56G A95G, the self-cleavage was 2.22.
On to U39C A54G A82G A118C, for which the self-cleavage is 0.18.
Turning to U38C A56G A117G, the self-cleavage worked out at 0.7.
To U38C U49G A62G G74U A94G A129U belongs 0.1; to U38C A116C U139C, 0.15; to C40U A54G A67G, 1.1.
To U39C A63U A94G A96G A116G belongs 1.02.
Regarding U39C A63G A118G, the self-cleavage worked out at 1.47.
Under U38C A52G A56G A82G U103C U108A stands 0.03; under U39C A56G A86G A114U U120C, 0; under U39A A92G A116G, 0.95.
Regarding U38C A59G U120C, the self-cleavage came to 0.26.
On to U38C A52U U102A, for which the self-cleavage is 0.69.
With U38A C105U G137A, the self-cleavage stood at 0.24.
For U38C A68G A82G, the self-cleavage was found to be 0.37.
Consider U38C A62G U70C, for which the self-cleavage was found to be 1.16.
As for U38C A56G A64G U70C, the self-cleavage was found to be 0.54.
Under U38C A56G A69G U131A G136A stands 1.18; under U38C A60G A90G U130C, 0.22.
Under U38C A63G A96G A116U stands 0.54; under U38C A55G A96G, 0.97; under U39C U72C A116G, 0.23.
With U39C A68G A95C U133C, the self-cleavage came out at 1.16.
U39C A51G A78G A91C A92U: the self-cleavage was found to be 0.14.
For the variant U39C A78G A82U U127C, the self-cleavage is 0.01.
For U38G A55G A98G, the self-cleavage was 1.5.
On to U39C A67G U120A U124C U132C, for which the self-cleavage is 1.04.
Regarding U39C G48A A68G, the self-cleavage came out at 0.76.
To U38C A95G U122C belongs 1.86; to U38C A91G A95G G115A, 0.38.
On to U38C A56G A62U, for which the self-cleavage is 1.48.
In the case of U39C A55G U70C U87C A95G, the self-cleavage was found to be 1.01.
For the variant U39C A56G U127C, the self-cleavage came out at 1.17.
G41A C85U A111G A116U U122C: the self-cleavage came out at 0.01.
As to C40U A67G A114U, the self-cleavage worked out at 0.23.
For the variant U39C A67G G137A, the self-cleavage amounted to 2.21.
With U38A A62G U87A, the self-cleavage stood at 1.81.
Under U38C A89G U132C stands 1.52; under U39A A54U U70C G80A A92G, 0.13; under U38C A55G A56G A117U A126C, 0.67.
In the case of U39C A47G A92G U130C U131C, the self-cleavage stood at 0.1.
For the variant U39C U72G A118G, the self-cleavage stood at 0.26.
As to G41A A78G U108A, the self-cleavage came to 0.02.
For U39C A52G A54U A90G, the self-cleavage is 1.25.
Under U39A C81U U100C U103C U120A stands 0.73; under U39A U72C A95G, 0.16.
As to U39C U122A U127C U131C, the self-cleavage came to 1.02.
Regarding G41A A91G A110G, the self-cleavage was found to be 0.08.
To U38C A47G A117G belongs 1.58; to U38C A67U A78U, 0.52; to U38C U43C A64U C77U A114U, 0.13.
As to U38C C105U U108A, the self-cleavage was 0.03.
As to U39C A47G U57C, the self-cleavage came to 1.41.
As to U39A A78G A116G, the self-cleavage was found to be 0.14.
For the variant U38C U87C U139C, the self-cleavage is 0.84.
As for U38C U87C U139A, the self-cleavage is 1.98.
As for U38C A55U A68G A126G, the self-cleavage amounted to 0.7.
On to U38C A64G U103C U127C A134G, for which the self-cleavage turned out to be 0.55.
Consider U38C A66G U100C, for which the self-cleavage turned out to be 2.54.
Take U38A A68G U102C: the self-cleavage came out at 2.15.
In the case of U38C A67G A89G A92G U100C, the self-cleavage is 1.99.
With U39C A62G G75A U100A, the self-cleavage was 0.09.
With U38A U57C A94G U103A A117G U120A U131C, the self-cleavage was 0.36.
U38C A47U U49A A56G U72C: the self-cleavage was 0.1.
On to U39C A51U A63G G74A A82G U132C, for which the self-cleavage is 0.31.
G41A A59G U72C G99A U132C: the self-cleavage is 0.08.
To U38G A51G A55G A62G belongs 0.71; to U39A A63U U108C A116G A117G G136A, 0.
As for U38C U87C U132C, the self-cleavage came out at 2.11.
As to U39C A55G U72A A86U A96G, the self-cleavage turned out to be 0.2.
Under U38C U43C A78G stands 0.05.
In the case of U39A G41A A62G A140G, the self-cleavage turned out to be 1.65.
As for U39A A92U A118G, the self-cleavage was found to be 2.13.
For the variant U39C A82G U102C, the self-cleavage came to 0.78.
On to U38A A68G U72A U102C A135U, for which the self-cleavage stood at 0.12.
For U38C A68G A91G A125C, the self-cleavage was 0.52.
Consider U39C U72A A140G, for which the self-cleavage was 0.43.
Take U39A A51G A86U A126G: the self-cleavage is 0.53.
As for U39G A68G U131C, the self-cleavage was found to be 1.13.
Under U39C A86G U102C A110G stands 0.24; under U39C A86G A98G A110U U122C G138U, 0.18; under U39C A47C A96G G138A, 1.91.
To G41A A63G U97C belongs 1.35.
To U39A U43C A59G A117G belongs 0.67; to U39C A55G A116G, 1.05; to U39C A134G A135G, 1.12.
Turning to U38C A60G A91U, the self-cleavage was 1.84.
To U39C A51G A64G belongs 0.99.
Take U38C A66G U130C U139A: the self-cleavage was 1.51.
On to U38A U72C A94G A111G, for which the self-cleavage came out at 0.01.
Consider U38C A47U A86C A111U, for which the self-cleavage came to 0.03.
To C40U A69G A96G belongs 1.6; to U39C G74A U97A U103A U120C, 0.02; to U39C A60G A92G A116G U122C, 0.23.
Take U39C A69G A114G: the self-cleavage turned out to be 0.22.
With U38C G79A A86U U103C, the self-cleavage was found to be 0.02.
U38C G83A U87C: the self-cleavage came to 1.92.
Regarding U38C A51G A92G, the self-cleavage came to 1.4.
